PubChem BioAssay AID686979 (National Center for Advancing Translational Sciences (NCATS), 2013)
Values joined by “and” are separate entries in the source; they are usually repeats but may differ in a detail not shown here. Identical values can stand only once. About 50,000 (12%) of roughly 420,000 compounds were called active. Inconclusive means that the source gave no clear call. Such entries were picked first, then a sample of the others. Calls come from the whole dose curve; as a rule, active = well fitted inhibition curve with a large enough effect; inconclusive = small, poorly fitted or top-dose-only effect; inactive = flat fitted curve, though single readings scatter. Potencies beside an inconclusive call are fits to weak or partial responses and may not hold up.

Experiment: qHTS for Inhibitors of human tyrosyl-DNA phosphodiesterase 1 (TDP1): qHTS in cells in presence of CPT; note: nearly all actives have a fitted effect of over 55% in size
Conditions: chicken DT40 Tdp1-/-;hTDP1 cells + 20 nM CPT, ATP luminescence, 48 h; activity change, negative = growth inhibition: at 46.2 µM (top of the series)
How it was run: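 Cell growth measured by CellTiter-Glo luminescence after a minimum 48 h, 37 C compound exposure with 20 nM CPT in Tdp1-knockout DT40 cells stably expressing hTDP1, seeded 400/well; qHTS titration format.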
% is set by controls: 0 for no effect and ±100 for the full control effect; potency is the fitted concentration of half-maximal effect; tags give direction and shape of the fitted curve.

Structure (SMILES)	Potency	activity change, negative = growth inhibition
CC(/C=C/c1cccc(Oc2ccc(F)cc2)c1)N(O)C(N)=O (centres undefined)	inconclusive: 50.1 µM [inhibitor, single point]	–
COc1cccc2c(=O)c(C/C=C(/C)Cl)c(C)[nH]c12	–	inactive: -1.39%
Cc1cccc(N(C)C(=O)CCNS(=O)(=O)c2ccc3c(c2)CCN3C(=O)C2CC2)c1	active: 16.4 µM	–
CC(C)COP(=O)(OCC(C)C)C(O)c1ccc(F)cc1 (centres undefined)	–	inactive: -15.4%
O=C1CC(N2CCN(C/C=C/c3ccccc3)CC2)C(=O)N1Cc1cccs1 (centres undefined)	–	inactive: 13%
Cn1cc(NC(=O)Nc2ccc(C(F)(F)F)cc2)c(C(F)(F)F)n1	inconclusive: 29.1 µM [inhibitor, single point]	–
O=C(Nc1cnc2ccccc2c1)c1ccncc1	inconclusive: 8.2 µM [inhibitor, partial curve]	–
C[C@H](CO)N1C[C@H](C)[C@@H](CN(C)S(=O)(=O)c2ccc(C#N)cc2)OCc2cn(nn2)CCCC1=O	–	inactive: 6.16%
Nc1ccc(-c2nnc(-c3ccc(-c4ccccc4)cc3)o2)cc1	inconclusive: 16.4 µM [inhibitor, single point]	–
COC(=O)C1CCN(C(=O)CN2C(=O)c3ccccc3S2(=O)=O)CC1	–	inconclusive: -12.3% [inhibitor]
CCCCN(C)C(=O)c1nc2ccccn2c1CN1CCN(c2cnccn2)CC1	–	inactive: 5.31%
CC(NC(=O)c1ccc(CS(C)(=O)=O)cc1)C1CC2CCC1C2 (centres undefined)	–	inactive: -6.05%
CC(C)C(=O)NC(=S)Nc1ccc(S(=O)(=O)N2CCCC2)cc1	inconclusive: 29.1 µM [inhibitor, single point]	–
CCC(C)NC(=O)CNC(=O)c1nn(-c2ccc(OC)c(Cl)c2)c(=O)c2ccccc12 (centres undefined)	–	inactive: -4.46%
O=C(N/N=C/c1ccc2ccccc2c1)c1ccc(COc2ccc3c(c2)CCC3)o1	inconclusive: 29.1 µM [inhibitor, single point]	–
Nc1nc(-c2ccco2)nn1S(=O)(=O)c1ccc(Cl)cc1	–	inactive: -15.1%
O=C(CCc1c[nH]c2ccccc12)N1CCN(S(=O)(=O)c2ccc([N+](=O)[O-])cc2)CC1	inconclusive: 29.1 µM [inhibitor, partial curve]	–
O=C(CN1CCC(n2nnc3cc(F)ccc32)CC1)Nc1ccc2c(c1)CCC2	inconclusive: 29.1 µM [inhibitor, single point]	–
O=C(Nc1c(C(=O)Nc2ccccc2F)oc2ccccc12)c1cc2ccccc2o1	–	inactive: -1.17%
O=C(NCCO)c1cc2c([nH]c3ccccc32)c(-c2ccc(F)cc2)n1	inconclusive: 20.6 µM [inhibitor, single point]	–
Cc1cc(Cl)ccc1OCCn1cncn1	–	inactive: -3.57%
CCc1sc(C(=O)N2CCc3cc(OC)c(OC)cc3C2CC(=O)O)cc1C (centres undefined)	–	inactive: 14.2%
Cn1ncc2c(Nc3cccc(F)c3)ncnc21	–	inactive: -29.6%
Cc1ccc(/C([O-])=C(/C(=S)NCc2ccco2)[n+]2ccccc2)cc1[N+](=O)[O-]	inconclusive: 29.1 µM [inhibitor, single point]	–
Cc1ccc(OCC(=O)NCc2cccs2)cc1	–	inactive: -12.9%

Structure (SMILES)	Potency	activity change, negative = growth inhibition
Cc1ccc(C)c(CS(=O)(=O)c2cn(CC(=O)N(C(C)C)C(C)C)c3ccccc23)c1	active: 14.6 µM	–
Cc1ccccc1C(=O)NC1CC2CCCC(C1)N2Cc1ccc(Cl)cc1 (centres undefined)	–	inactive: -21.1%
O=C(O)c1ccccc1C(=O)Nc1ccccn1	–	inactive: -0.883%
CC(C)(C)OC(=O)NCCCCCNC(=O)c1[nH]cnc1C(=O)N[C@@H](CCCCNC(=O)OC(C)(C)C)C(=O)OC(C)(C)C	active: 16.4 µM	–
COc1cccc(NC(=O)CSc2nc3ccccc3c(=O)n2CCCC(=O)NCC2CCCO2)c1 (centres undefined)	–	inactive: -25%
COc1ccccc1CNC(=O)CS(=O)Cc1nc(-c2ccc(OC)c(OC)c2)oc1C (centres undefined)	inactive and inconclusive: 16.4 µM [inhibitor, partial curve]	–
Cc1ccc(C(=O)N(C)c2ccc(OCC(=O)N3c4ccc(C)cc4C4CN(C)CCC43)cc2)cc1 (centres undefined)	inconclusive: 18.4 µM [inhibitor, single point]	–
COc1ccc(-c2csc(C(O)c3cccc(Cl)c3)n2)cn1 (centres undefined)	active: 16.4 µM	–
CCOC(=O)c1c(C)sc2c1N(C(=O)CN(CC)CC)c1cc(Cl)ccc1S2	active: 18.4 µM	–
O=C1C(Cl)=C(N2CCOCC2)C(=O)N1c1cccc(C(F)(F)F)c1	–	inconclusive: -31.7% [inhibitor]
CCNC(=O)c1sc2ncnc(NCCCN3CCOCC3)c2c1C	–	inactive: 13.2% [at 9.04 µM]
Cc1cc(C)c(C)c(OCCNCc2ccccc2)c1	inconclusive: 23.1 µM [inhibitor, single point]	–
CC(CCc1ccccc1)NCC(O)COc1ccccc1 (centres undefined)	inconclusive: 29.1 µM [inhibitor, single point]	–
COc1ccccc1NS(=O)(=O)c1cc(NC(=O)COc2ccccc2)ccc1N1CCOCC1	inconclusive: 29.1 µM [inhibitor, single point]	–
COc1ccc(C(=O)NC2CC(C)(C)Cc3c2cnn3-c2ccccc2C)c(OC)c1OC (centres undefined)	active: 23.1 µM	–
CCOC(=O)c1ccc(NC(=O)C2CCN(S(=O)(=O)c3ccc(C)cc3)CC2)cc1	inconclusive: 14.6 µM [inhibitor, single point]	–
Cc1cc(C)c2nc(NC(=O)c3ccc(OCC4CCCO4)cc3)sc2c1 (centres undefined)	inconclusive: 20.6 µM [inhibitor, single point]	–
Cn1nnc2cc(C(=O)Nc3ccccc3F)ccc21	–	inactive: 4.3%
COc1cccc(C(=O)NCC(=O)N/N=C/c2ccc3c(c2)OCO3)c1	–	inactive: 0.773%
COc1cc2ccnc(Cc3cccc(OC)c3OC)c2cc1OC	inconclusive: 29.1 µM [inhibitor, single point]	–
CCN(Cc1ccccc1)C(=O)C1CCN(S(=O)(=O)c2c(C)noc2/C=C/c2ccc(C)cc2)CC1	inconclusive: 18.4 µM [inhibitor, single point]	–
Nc1cccc2[nH]c(=O)c3ccccc3c12	inconclusive: 1.16 µM [inhibitor, full curve, poor fit]	–
Cc1cc(Cl)n2c(nc3ccccc32)c1C#N	active: 0.411 µM	–
COc1ccc(Nc2cc(C)c3cc(NC(=O)Cc4c(F)cccc4Cl)ccc3n2)cc1	active: 16.4 µM	–
CCCN(CCC)S(=O)(=O)c1cc(CN2C(=O)c3cccnc3C2=O)ccc1OC	–	inactive: 0.921%

Structure (SMILES)	Potency	activity change, negative = growth inhibition
Cc1ccc(NC(=S)NNc2ncc(C(F)(F)F)cc2Cl)cc1	inconclusive: 29.1 µM [inhibitor, single point]	–
O=C(CNC(=O)c1ccc(Br)cc1)NCCc1nc2ccccc2[nH]1	–	inconclusive: -32.2% [inhibitor]
Cc1ccc(CCNC(=O)c2ccc(CSCc3ccccc3C)o2)cc1	inconclusive: 18.4 µM [inhibitor, single point]	–
O=C(Nc1cccc2ncccc12)c1ccco1	–	inactive: 6.4%
CCOC(=O)C1=C(COC(=O)/C=C/c2cc(OC)c(OC)c(OC)c2)NC(=O)NC1C (centres undefined)	inconclusive: 29.1 µM [inhibitor, single point]	–
COc1ccc(CCNC(=O)c2ccccc2OCc2c(C)noc2C)cc1	inconclusive: 29.1 µM [inhibitor, single point]	–
Fc1cccc(-c2cc3nc4c(c(NCc5ccco5)n3n2)CCCC4)c1	inconclusive: 23.1 µM [inhibitor, single point]	–
COC(=O)[C@]12CCCCC=C1N(Cc1cccc3ccccc13)C(=O)[C@H](CC(=O)NCCCCc1ccccc1)C2	inconclusive: 23.1 µM [inhibitor, single point]	–
O=Nc1c(O)n(Cc2ccc(Cl)c(Cl)c2)c2ccccc12	inconclusive: 16.4 µM [inhibitor, single point]	–
Cc1ccccc1NC(=O)C1Cc2ccccc2CN1C(=O)OCc1ccccc1 (centres undefined)	inconclusive: 23.1 µM [inhibitor, single point]	–
CN(C)C(=S)N=c1ssc(=S)n1Cc1cccnc1	active: 1.84 µM	–
CCOc1ccc(CNS(=O)(=O)c2ccc(-c3cc(C(F)(F)F)on3)s2)cc1	inconclusive: 20.6 µM [inhibitor, single point]	–
O=C(CN1C(=O)c2ccccc2S1(=O)=O)Nc1cccc(S(=O)(=O)N2CCOCC2)c1	–	inactive: 1.08%
CC(C)(C)N(Cc1ccccc1)C(=O)CSc1ncn[nH]1	inconclusive: 29.1 µM [inhibitor, single point]	–
COc1ccccc1CNC(=O)c1sc2nc3n(c(=O)c2c1C)CCC3	–	inactive: -18.7%
CC(Oc1ccccc1F)C(=O)NNC(=O)c1ccc(-n2cncn2)c([N+](=O)[O-])c1 (centres undefined)	inconclusive: 23.1 µM [inhibitor, partial curve]	–
Cc1nc2c(Cl)cccc2c2c1CC(CBr)O2 (centres undefined)	active: 14.6 µM	–
CCOC(=O)C1CCN(CC(=O)c2ccc(O)c(C)c2O)CC1	inconclusive: 25.9 µM [inhibitor, single point]	–
CCOc1ccc(CNC(=O)C2Cc3cc(S(=O)(=O)N4CCCC4)ccc3N2C(C)=O)cc1 (centres undefined)	–	inactive: -26.7%
COc1ccc(N/C=C(\C=C\C#N)S(=O)(=O)c2ccccc2)cc1	–	inactive: 8.93%
Cc1ccc(-c2cc3nc(-c4ccccc4)cc(N4CCC5(CC4)OCCO5)n3n2)cc1	active: 16.4 µM	–
CCOC(=O)C(=O)c1c(-c2ccccc2)nc2ccccn12	inconclusive: 25.9 µM [inhibitor, partial curve, poor fit]	–
CC(=O)NC(NC(=S)Nc1c(C)n(C)n(-c2ccccc2)c1=O)C(Cl)(Cl)Cl (centres undefined)	inconclusive: 16.4 µM [inhibitor, single point]	–
COc1cc(OC)c2c(-c3cccc(-c4ccc(CO)cc4)c3)cc(=O)oc2c1	active: 1.3 µM	–
